Experimental data: PubChem BioAssay AID1745845 (National Center for Advancing Translational Sciences (NCATS), 2022)
Values joined by “and” are separate entries in the source; they are usually repeats but may differ in a detail not shown here. Equal values may be shown once. In all, about 360,000 compounds went through this assay and about 2,600 (0.72%) were called active. This list was built around the results that the source calls inconclusive (neither active nor inactive); the mix of calls is not that of the screen. Calls come from the whole dose curve; as a rule, active = well fitted inhibition curve with a large enough effect; inconclusive = small, poorly fitted or top-dose-only effect; inactive = no such curve, though single readings can be large or run the other way. A potency beside an inconclusive call is a rough fit, not a confirmed value.

Assay: Primary qHTS for Inhibitors of ATXN expression; note: nearly all actives have a fitted effect of over 55% in size
Conditions: HEK-293 ATXN2-luciferase reporter, luminescence, 24 h; activity change, negative = inhibition: at 57 µM (top of the series)
Method in brief: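 qHTS (up to 57 uM final) was run with 24 h compound exposure of reporter cells at 37 °C. Each well was multiplexed: SteadyGlo luminescence measured ATXN2-luciferase expression after a fluorogenic Gly-Phe-AFC viability readout (25 uM final).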
% is set by controls: 0 for no effect and ±100 for the full control effect; potency is the fitted concentration of half-maximal effect; tags give direction and shape of the fitted curve.

SMILES | activity change, negative = inhibition | Potency
CC(=O)OC[C@H]1O[C@@H](n2ccc(=O)[nH]c2=S)C(OC(C)=O)C1OC(C)=O (stereo not given in full) | inactive: 3.32% | 
CCCCN(CC)CCCNC(=O)c1cc2c(=O)n(C)c3ccccc3c2n1C |  | inconclusive: 39.8 µM [inhibitor, partial curve, poor fit]
CCCCCCCCCCOC(=O)Cn1c(COc2ccccc2OC)[n+](C)c2ccccc21 |  | inconclusive: 20 µM [inhibitor, partial curve, poor fit]
CCc1nc2ccc(C(=O)N(C)Cc3ccccc3)cn2c1N(C)Cc1ccc(OC)cc1 |  | inconclusive: 28.2 µM [inhibitor, single point]
Cn1nc(C(F)(F)F)c(C(=O)Nc2cccc(Cl)c2)c1Cl | inactive: -12.7% | 
CCCCCCC[C@@H](C/C=C/CCC(=O)N(C)C/C(=C/Cl)C/C(=C\C(=O)N1CC(OC)=CC1=O)OC)OC |  | inconclusive: 39.8 µM [inhibitor, single point]
CCCCOC(=O)c1c(C)oc2ccc(NS(=O)(=O)c3ccc4c5c(cccc35)C(=O)N4)cc12 |  | inconclusive: 35.5 µM [inhibitor, single point]
N#Cc1c(NC(=O)CSc2ncn[nH]2)sc2c1CCCCC2 |  | inconclusive: 0.251 µM [inhibitor, full curve, poor fit]
COc1ccc(-c2cc(CNc3nc(NC(C)C)nc4cc(-c5ccccc5)sc34)on2)cc1 |  | inconclusive: 8.91 µM [inhibitor, partial curve, poor fit]
CCOC(=O)Cn1nc(C)cc1NC(=O)c1ccncc1 | inactive: 1.49% | 
C[C@@H]1CN([C@H](C)CO)S(=O)(=O)c2ccc(C#Cc3cccc(F)c3)cc2O[C@@H]1CN(C)C(=O)CN1CCOCC1 |  | inconclusive: 35.5 µM [inhibitor, single point]
COc1cc(-c2nc(Cn3nnc(C(=O)Nc4cc(C)cc(C)c4)c3C)c(C)o2)cc(OC)c1OC | inactive: 0.0779% | 
O=C(CSc1ncnc2c1cnn2-c1ccccc1)Nc1ccccc1 |  | inconclusive: 39.8 µM [inhibitor, partial curve, poor fit]
CC(C)(O)C#Cc1ccc([C@@H]2C[C@H]3CN(c4ccccc4)C(=O)[C@]34CCCN24)s1 |  | inconclusive: 3.16 µM [inhibitor, full curve]
CCn1cc(C(=O)NCc2ccccc2)c(=O)c2cc(F)c(N3CCN(C(=O)c4ccco4)CC3)cc21 |  | inconclusive: 31.6 µM [inhibitor, single point]
COC(=O)C1CCN(C(=O)c2cc(-c3ccc(Cl)s3)nc3ccccc23)CC1 |  | inconclusive: 39.8 µM [inhibitor, single point]
CCCCN(CCCC)CC(O)Cn1cc(/C=C/C(=O)c2ccccc2)c2ccccc21 (stereo not given) |  | inconclusive: 39.8 µM [inhibitor, single point]
CCOc1ccc(C(=O)NC(=S)Nc2cccnc2)cc1[N+](=O)[O-] | inactive: 16.8% | 
Cn1c(Cl)cnc1C1CC(=O)c2cc(Cl)ccc2O1 (stereo not given) |  | inconclusive: 35.5 µM [inhibitor, single point]
CCN(CCCNC(=O)c1cc2cc3ccc(C)cc3nc2s1)c1ccccc1 | inactive: 17.3% | 
CC(C)Oc1ccc(C(=O)Nc2ncn[nH]2)cc1 | inactive: 30.4% | 
N#CC1=CN(Cc2ccccc2)C=C(/C=N/Nc2ccccc2)C1 | inactive: -12.1% | 

SMILES | activity change, negative = inhibition | Potency
Cc1ccc(OCCCn2c(CO)nc3ccccc32)cc1 | inactive: 39.2% | 
O=S(=O)(c1ccc(N=C2NN=C(c3cc(F)ccc3F)CS2)cc1)N1CCOCC1 |  | inconclusive: 39.8 µM [inhibitor, single point]
Cc1ccc2[nH]c(=O)c(CN(Cc3ccco3)C(=O)CN3CCCC(C)C3)cc2c1 (stereo not given) |  | inconclusive: 47.4 µM [inhibitor, partial curve, poor fit]
CCC(C)N(CCNC(=O)c1ccc2c(c1)NC(=O)c1ccccc1S2)C1CCCCC1 (stereo not given) |  | inconclusive: 39.8 µM [inhibitor, single point]
COc1cc(/C=C/C(=O)Nc2cc(C(F)(F)F)ccc2Cl)cc(OC)c1OC |  | inconclusive: 12.6 µM [inhibitor, partial curve, poor fit]
CC(=O)Oc1cccc(O)c1 | inactive: 13.1% | 
Cc1ccc(Cn2cc(/C=N/Nc3ccc([N+](=O)[O-])cn3)c3ccccc32)cc1 | inactive: -15.3% | 
Cc1cc(C)n(CCc2nc3c4ccccc4nc(N4CCN(c5ccccc5F)CC4)n3n2)n1 | inactive: 3.67% | 
Cc1ccc[n+](C(C)C(=O)Nc2ccc(C)c([N+](=O)[O-])c2)c1 (stereo not given) | inactive: 12.4% | 
COc1ccccc1CNC(=O)C1CC(c2c(Cl)cccc2Cl)=NO1 (stereo not given) | inactive: 4.38% | 
COC(=O)c1cc(NC(=O)c2ccc(Cn3cc(Cl)cn3)o2)cc(C(=O)OC)c1 |  | inconclusive: 31.6 µM [inhibitor, partial curve]
Clc1cccc(Nc2nc(N3CCOCC3)nc(N3CCOCC3)n2)c1 |  | inconclusive: 39.8 µM [inhibitor, single point]
Clc1ccc(N2CCN(/N=C/c3cccnc3)CC2)cc1 |  | inconclusive: 31.6 µM [inhibitor, partial curve, poor fit]
O=C(CSc1nnc2c3ccccc3c3ccccc3c2n1)Nc1ccccc1F |  | inconclusive: 14.1 µM [inhibitor, partial curve]
CC(=O)C1=C(C)NC(SCC(=O)c2cc(Cl)ccc2Cl)=C(C#N)C1c1ccco1 (stereo not given) |  | inconclusive: 31.6 µM [inhibitor, partial curve, poor fit]
Cc1c(C(c2ccc(N(C)C)cc2)c2c(C)n(C)n(-c3ccccc3)c2=O)c(=O)n(-c2ccccc2)n1C |  | inconclusive: 1 µM [inhibitor, partial curve, poor fit]
Cc1cccc(C)c1NC(=S)N=Nc1c(O)n(C)c2ccc(S(=O)(=O)N3CCOCC3)cc12 |  | inconclusive: 8.91 µM [inhibitor, full curve, poor fit]
Cc1cccc(NC(=S)N=Nc2c(O)[nH]c3ccccc23)c1 |  | inconclusive: 10 µM [inhibitor, partial curve, poor fit]
Cc1ccc(/C=N/n2c(C3CCCCC3)n[nH]c2=S)cc1 | inactive: -20.2% | 
Cc1cccc(N2C(=O)CSC23C(=O)N(Cc2cccc(C(F)(F)F)c2)c2ccccc23)c1 (stereo not given) |  | inconclusive: 22.4 µM [inhibitor, single point]
Clc1ccc(N/N=C/c2ccncc2)cc1Cl | inactive: 22% | 
Cc1ccc(NS(=O)(=O)c2ccc3[nH]c4c(c3c2)CCCCCC4)cc1Cl |  | inconclusive: 39.8 µM [inhibitor, single point]

SMILES | activity change, negative = inhibition | Potency
O=C(Nc1ccc(S(=O)(=O)NC2=NCCCCC2)cc1)c1ccc([N+](=O)[O-])s1 |  | inconclusive: 17.8 µM [inhibitor, partial curve]
CCOc1cc(/C=C2\SC(=N)N(c3nccs3)C2=O)ccc1OCCN1CCOCC1 |  | active: 22.4 µM
COc1ccc(C)cc1S(=O)(=O)N1CCOCC1 |  | inconclusive: 14.1 µM [inhibitor, partial curve, poor fit]
O=Nc1c(-c2c(O)[nH]c3cc(Br)ccc23)[nH]c2ccccc12 |  | inconclusive: 38.5 µM [inhibitor, single point] and inconclusive: 35.5 µM [inhibitor, single point]
O=C(NCC(c1ccco1)S(=O)(=O)c1ccc(Cl)cc1)c1ccccc1F (stereo not given) | inactive: 12.1% | 
COc1ccc(-c2cc(C3CCN(Cc4cccc(C(F)(F)F)c4)CC3)[nH]n2)cc1 |  | inconclusive: 39.8 µM [inhibitor, single point]
CCCN1CCN(CCCNC(=O)c2cnn(-c3ccc(F)cc3)c2-n2cccc2)CC1 | inactive: 2.29% | 
CCCCNC(=O)C1(C)CCCCN1C(=O)c1ccc2c(c1)C(C)(C)CCC2(C)C (stereo not given) |  | inconclusive: 17.8 µM [inhibitor, partial curve]
O[C@H]1CN(CC2CCCCC2)[C@@H](c2ccc(Cl)cc2)C[C@@H]1n1cc(-c2ccc(F)cc2)nn1 |  | inconclusive: 39.8 µM [inhibitor, single point]
CCC1(O)C(=O)OCc2c1cc1n(c2=O)Cc2cc3c(N)cccc3nc2-1 (stereo not given) |  | inconclusive: 0.0238 µM [inhibitor, partial curve, poor fit]
CC(C)C1C(=O)N(Cc2cn(CCC3OCCO3)nn2)CCS(=O)(=O)N1Cc1ccc(-c2ccc(F)cc2Cl)cc1 (stereo not given) |  | inconclusive: 39.8 µM [inhibitor, single point]
O=C1c2ccccc2-n2c1nc1ccccc1c2=O | inactive: -6.51% | 
O=C1CN(C(=O)Cn2ncc(Cl)c(Cl)c2=O)c2ccccc2N1 |  | inconclusive: 29.9 µM [inhibitor, single point]
COc1ccc(CC(N)c2csc(NC(=O)Nc3ccccc3-c3ccccc3)n2)cc1 (stereo not given) |  | inconclusive: 39.8 µM [inhibitor, single point]
Cc1cc(N2CCCCC2)nc2ccc(NC(=O)c3cccc(F)c3)cc12 |  | inconclusive: 31.6 µM [inhibitor, single point]
O=C1NCC(COCc2ccccc2)O1 (stereo not given) |  | inconclusive: 39.8 µM [inhibitor, single point]
CN[C@H]1C[C@H]2c3cc(-c4ccccc4)ccc3CCN2C(=O)[C@H]1[C@H](C)O | inactive: -9.24% | 
OC(c1ccccc1)(c1nc(-c2cccc(C(F)(F)F)c2)cs1)C(F)(F)F (stereo not given) |  | inconclusive: 39.8 µM [inhibitor, single point]
O=c1c2ccccc2nc2n1CC/C2=C/N1CCN(c2cccc(C(F)(F)F)c2)CC1 | inactive: -10.3% | 
Cc1csc(NC(=O)CSc2nc3[nH]c(=O)cc(O)c3s2)n1 | inactive: -30.3% | 
COc1cccc(OC)c1-c1cc(C(=O)NC2(C(=O)O)C3CC4CC(C3)CC2C4)nn1-c1ccnc2cc(Cl)ccc12 (stereo not given) |  | inconclusive: 43.2 µM [inhibitor, partial curve, poor fit]
